Results on 28 molecules are retold here after the antibiotic and cytotoxicity screens of Wong et al. (2023).

For one test, the system named is HSkMC. The experiment in a line: cytotoxicity call (relative viability < 0.9). The conditions noted are these: 10 µM.
The test system of a further test is HepG2. Description: cytotoxicity call (relative viability < 0.9). The conditions noted are these: 10 µM.
Another test deals with S. aureus RN4220. The experiment in a line: growth inhibition call (relative growth <= 0.2). The conditions noted are these: 50 µM.

SMILES strings stand for the structures. Some of the results follow.

Take `Cc1ccc(C(=CCN2CCCC2)c2ccccn2)cc1.Cl`: the cytotoxicity call with HSkMC and in the test on HepG2 was “inactive” in each case. The growth inhibition call in the test with S. aureus RN4220 was “inactive”.

Take `Cc1noc(C)c1S(=O)(=O)Nc1ccc2c(c1)C(=O)N([C@@H](C)CO)C[C@H](C)[C@@H](CN(C)C(=O)Nc1ccc(C(F)(F)F)cc1)OCCCC[C@H](C)O2`: the cytotoxicity call with HSkMC is “inactive”. Also, the cytotoxicity call in the test on HepG2 is “active”. In addition, the growth inhibition call in the test with S. aureus RN4220 was “inactive”.

As to `Cc1coc2c1C(=O)C(=O)c1c-2ccc2c1CCCC2(C)C`, the cytotoxicity call in the test on HSkMC and in the test with HepG2 was “active” each time. Besides, the growth inhibition call in the test on S. aureus RN4220 is “inactive”.

In the case of `C[C@@H]1CN([C@H](C)CO)C(=O)Cc2cc(NC(=O)CCCCCC(=O)Nc3ccccc3N)ccc2O[C@@H]1CN(C)Cc1ccc(Oc2ccccc2)cc1`, the cytotoxicity call with HSkMC and in the test with HepG2 was “active” throughout. Further, the growth inhibition call with S. aureus RN4220 is “inactive”.

Take `COc1ccc(S(=O)(=O)N(C)C[C@H]2Oc3ccc(NS(=O)(=O)c4cccs4)cc3C(=O)N([C@H](C)CO)C[C@@H]2C)cc1`: the cytotoxicity call in the test on HSkMC and with HepG2 was “inactive” in each case. Further, the growth inhibition call with S. aureus RN4220 is “inactive”.

Take `O=C(COP(=O)(O)O)[C@@H](O)[C@H](O)[C@H](O)COP(=O)(O)O`: the cytotoxicity call with HSkMC and in the test with HepG2 was “inactive” throughout. Besides, in the test with S. aureus RN4220, the growth inhibition call is “inactive”.

In the case of `CC(C)NC(=O)N(C)C[C@@H]1Oc2ccc(NC(=O)C3CCCCC3)cc2C(=O)N([C@@H](C)CO)C[C@@H]1C`, the cytotoxicity call with HSkMC and with HepG2 was “inactive” throughout. Moreover, in the test on S. aureus RN4220, the growth inhibition call is “inactive”.

On to `COc1ccc(S(=O)(=O)N(C)C[C@H]2Oc3cc(C#CC4CCCC4)ccc3S(=O)(=O)N([C@@H](C)CO)C[C@@H]2C)cc1`, for which the cytotoxicity call with HSkMC and in the test on HepG2 was “inactive” each time. Also, in the test with S. aureus RN4220, the growth inhibition call is “inactive”.

Take `O=c1cc(-c2ccccc2)oc2c(O)c(O)ccc12`: the cytotoxicity call in the test on HSkMC is “inactive”. Also, in the test on HepG2, the cytotoxicity call was “active”. Besides, the growth inhibition call in the test with S. aureus RN4220 is “inactive”.

On to `C[C@@H]1CN([C@H](C)CO)C(=O)Cc2cc(NS(=O)(=O)c3cn(C)cn3)ccc2O[C@@H]1CN(C)C(=O)Nc1ccccc1`, for which the cytotoxicity call in the test with HSkMC and with HepG2 was “inactive” throughout. In addition, the growth inhibition call in the test on S. aureus RN4220 was “inactive”.

`C[C@H]1CN([C@@H](C)CO)C(=O)c2cccc(NC(=O)Nc3ccc(C(F)(F)F)cc3)c2O[C@@H]1CN(C)Cc1ccc(-c2ccccc2)cc1`: the cytotoxicity call with HSkMC and in the test with HepG2 was “inactive” in each case. The growth inhibition call in the test on S. aureus RN4220 is “inactive”.

Turning to `C[C@@H]1CN([C@H](C)CO)C(=O)c2cc(NC(=O)CCC(F)(F)F)ccc2O[C@@H](C)CCCCO[C@H]1CN(C)Cc1ccc(C(F)(F)F)cc1`, the cytotoxicity call with HSkMC and with HepG2 was “inactive” in each case. Besides, the growth inhibition call in the test on S. aureus RN4220 is “inactive”.

Regarding `CN1C(=O)c2cc(NC(=O)Nc3ccccc3F)ccc2OC[C@H]2O[C@@H](CC(=O)NCc3ccc(-c4ccccc4)cc3)CC[C@H]21`, the cytotoxicity call with HSkMC and in the test with HepG2 was “inactive” each time. The growth inhibition call in the test with S. aureus RN4220 was “inactive”.

Consider `O=C(O)c1ccccc1-c1ccco1`, for which the cytotoxicity call in the test on HSkMC and with HepG2 was “inactive” in each case. Further, in the test on S. aureus RN4220, the growth inhibition call was “inactive”.

For `COc1ccc(S(=O)(=O)Nc2ccc3c(c2)C(=O)N([C@H](C)CO)C[C@H](C)[C@@H](CN(C)C(=O)Nc2ccc(F)cc2)OCCCC[C@H](C)O3)cc1`, the cytotoxicity call with HSkMC and in the test with HepG2 was “inactive” in each case. In addition, the growth inhibition call in the test with S. aureus RN4220 was “inactive”.

Take `Cc1ccc(S(=O)(=O)Nc2ccc3c(c2)C(=O)N([C@@H](C)CO)C[C@@H](C)[C@@H](CN(C)C(=O)Nc2ccc4c(c2)OCO4)OCCCC[C@@H](C)O3)cc1`: the cytotoxicity call in the test on HSkMC and in the test on HepG2 was “inactive” throughout. The growth inhibition call with S. aureus RN4220 is “inactive”.

For the molecule `COCCN1C(=O)CO[C@H]2CN(S(=O)(=O)c3ccccc3)C[C@@H]21`, the cytotoxicity call in the test on HSkMC and in the test on HepG2 was “inactive” throughout. Besides, the growth inhibition call in the test with S. aureus RN4220 was “inactive”.

As to `CCOC(=O)c1cnc[nH]1`, the cytotoxicity call in the test on HSkMC and in the test on HepG2 was “inactive” throughout. Further, in the test on S. aureus RN4220, the growth inhibition call was “inactive”.

In the case of `C[C@@H]1CCCCO[C@@H](CN(C)Cc2ccccc2)[C@H](C)CN([C@H](C)CO)C(=O)c2cc(NC(=O)c3ccccc3)ccc2O1`, the cytotoxicity call in the test on HSkMC and with HepG2 was “inactive” each time. The growth inhibition call in the test with S. aureus RN4220 was “inactive”.

As for `C[n+]1ccc(CCCO)cc1`, the cytotoxicity call in the test with HSkMC and in the test with HepG2 was “inactive” each time. The growth inhibition call in the test with S. aureus RN4220 is “inactive”.

On to `C[C@@H]1CN([C@H](C)CO)C(=O)c2cc(NC(=O)Nc3cccc4ccccc34)ccc2O[C@@H](C)CCCCO[C@H]1CN(C)S(=O)(=O)c1ccccc1`, for which the cytotoxicity call with HSkMC and in the test with HepG2 was “inactive” each time. The growth inhibition call in the test with S. aureus RN4220 is “inactive”.

As for `COc1ccc(NC(=O)Nc2ccc3c(c2)C(=O)N([C@H](C)CO)C[C@H](C)[C@@H](CN(C)C(=O)Nc2ccc(C(F)(F)F)cc2)OCCCC[C@@H](C)O3)cc1`, the cytotoxicity call with HSkMC and in the test on HepG2 was “inactive” in each case. Besides, in the test with S. aureus RN4220, the growth inhibition call is “inactive”.

In the case of `C[C@H]1CN([C@@H](C)CO)C(=O)CCCn2cc(nn2)CO[C@H]1CN(C)C(=O)Nc1ccc(N2CCCCC2)cc1`, the cytotoxicity call with HSkMC and in the test with HepG2 was “inactive” each time. For the same molecule, the growth inhibition call with S. aureus RN4220 was “inactive”.

For the molecule `CC1CCc2c(N3CCC(O)CC3)c(F)cc3c(=O)c(C(=O)O)cn1c23` (centres undefined), the cytotoxicity call in the test with HSkMC and in the test on HepG2 was “inactive” each time. Moreover, in the test on S. aureus RN4220, the growth inhibition call is “inactive”.

On to `C[C@H]1CN([C@@H](C)CO)C(=O)c2cc(NC(=O)Cn3cnnn3)ccc2O[C@H]1CN(C)Cc1ccc(Oc2ccccc2)cc1`, for which the cytotoxicity call in the test with HSkMC and in the test with HepG2 was “inactive” in each case. Further, in the test with S. aureus RN4220, the growth inhibition call is “inactive”.

For `C[C@@H]1CCCCO[C@H](CN(C)C(=O)CCCN(C)C)[C@@H](C)CN([C@@H](C)CO)C(=O)c2cc(NC(=O)Nc3ccc(F)cc3)ccc2O1`, the cytotoxicity call in the test with HSkMC and in the test on HepG2 was “inactive” each time. Besides, the growth inhibition call with S. aureus RN4220 is “inactive”.

For the molecule `C[C@@H]1CCCCO[C@@H](CN(C)C(=O)c2ccccc2)[C@@H](C)CN([C@H](C)CO)C(=O)c2cc(NS(=O)(=O)c3ccc(F)cc3)ccc2O1`, the cytotoxicity call in the test on HSkMC (human skeletal muscle cells) and in the test on HepG2 was “inactive” throughout. The growth inhibition call with S. aureus RN4220 is “inactive”.

With `C[C@H](CO)N1C[C@H](C)[C@@H](CN(C)C(=O)Nc2ccc(F)cc2)OCCCC[C@H](C)Oc2ccc(NC(=O)Nc3cccc4ccccc34)cc2C1=O`, the cytotoxicity call with HSkMC and in the test on HepG2 was “inactive” throughout. Moreover, the growth inhibition call in the test on S. aureus RN4220 is “inactive”.
